Experimental data from the supplement of paper PMC8728848.
The list shows a part of the results.

Tests used:
Assay in all cases: glycan array binding signal (z-score within array); higher = stronger binding
Details in all cases: glycan notation: IUPAC condensed, linker removed
Fuc(a1-2)Gal = target: Fuc(a1-2)Gal
Outline: (§1)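 The Consortium for Functional Glycomics database supplied 3228 glycan arrays, of which those lacking an available protein sequence were dropped. The binding signal, a within-array Z-score, was averaged across arrays of the same protein sequence and across linkers. Negative scores can be read as non-binding.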

Fuc(a1-2)Gal(b1-3)GalNAc = target: Fuc(a1-2)Gal(b1-3)GalNAc
Outline: as §1

[1] = target: Fuc(a1-2)Gal(b1-3)GalNAc(b1-3)Gal
Outline: as §1

[2] = target: Fuc(a1-2)Gal(b1-3)GalNAc(b1-3)Gal(a1-4)Gal(b1-4)Glc
Outline: as §1

[3] = target: Fuc(a1-2)Gal(b1-3)GalNAc(b1-4)[Neu5Ac(a2-3)]Gal(b1-4)Glc
Outline: as §1

Fuc(a1-2)Gal(b1-3)GlcNAc = target: Fuc(a1-2)Gal(b1-3)GlcNAc
Outline: as §1

[4] = target: Fuc(a1-2)Gal(b1-3)GlcNAc(b1-2)Man(a1-3)[Fuc(a1-2)Gal(b1-3)GlcNAc(b1-2)Man(a1-6)]Man(b1-4)GlcNAc(b1-4)GlcNAc
Outline: as §1

[5] = target: Fuc(a1-2)Gal(b1-3)GlcNAc(b1-3)Gal(b1-4)Glc
Outline: as §1

[6] = target: Fuc(a1-2)Gal(b1-3)GlcNAc(b1-3)[Gal(b1-4)[Fuc(a1-3)]GlcNAc(b1-6)]Gal(b1-4)Glc
Outline: as §1

[7] = target: Fuc(a1-2)Gal(b1-3)[Fuc(a1-4)]GlcNAc
Outline: as §1

[8] = target: Fuc(a1-2)Gal(b1-3)[Fuc(a1-4)]GlcNAc(b1-2)Man(a1-3)[Fuc(a1-2)Gal(b1-3)[Fuc(a1-4)]GlcNAc(b1-2)Man(a1-6)]Man(b1-4)GlcNAc(b1-4)GlcNAc
Outline: as §1

Fuc(a1-2)Gal(b1-4)Glc = target: Fuc(a1-2)Gal(b1-4)Glc
Outline: as §1

Fuc(a1-2)Gal(b1-4)Glc6S = target: Fuc(a1-2)Gal(b1-4)Glc6S
Outline: as §1

Fuc(a1-2)Gal(b1-4)GlcNAc = target: Fuc(a1-2)Gal(b1-4)GlcNAc
Outline: as §1

[9] = target: Fuc(a1-2)Gal(b1-4)GlcNAc(b1-2)Man(a1-3)[Fuc(a1-2)Gal(b1-4)GlcNAc(b1-2)Man(a1-6)]Man(b1-4)GlcNAc(b1-4)GlcNAc
Outline: as §1

[10] = target: Fuc(a1-2)Gal(b1-4)GlcNAc(b1-3)Gal(b1-4)GlcNAc
Outline: as §1

[11] = target: Fuc(a1-2)Gal(b1-4)GlcNAc(b1-3)Gal(b1-4)GlcNAc(b1-3)Gal(b1-4)GlcNAc
Outline: as §1

[12] = target: Fuc(a1-2)Gal(b1-4)GlcNAc6S
Outline: as §1

[13] = target: Fuc(a1-2)Gal(b1-4)[Fuc(a1-3)]GlcNAc
Outline: as §1

[14] = target: Fuc(a1-2)Gal(b1-4)[Fuc(a1-3)]GlcNAc(b1-2)Man(a1-3)[Fuc(a1-2)Gal(b1-4)[Fuc(a1-3)]GlcNAc(b1-2)Man(a1-6)]Man(b1-4)GlcNAc(b1-4)GlcNAc
Outline: as §1

[15] = target: Fuc(a1-2)Gal(b1-4)[Fuc(a1-3)]GlcNAc(b1-3)Gal(b1-4)[Fuc(a1-3)]GlcNAc
Outline: as §1

[16] = target: Fuc(a1-2)Gal(b1-4)[Fuc(a1-3)]GlcNAc(b1-3)Gal(b1-4)[Fuc(a1-3)]GlcNAc(b1-3)Gal(b1-4)[Fuc(a1-3)]GlcNAc
Outline: as §1

Fuc(a1-2)Gal6S(b1-4)Glc = target: Fuc(a1-2)Gal6S(b1-4)Glc
Outline: as §1

[17] = target: Fuc(a1-2)Gal6S(b1-4)Glc6S
Outline: as §1

[18] = target: Fuc(a1-2)Gal6S(b1-4)GlcNAc
Outline: as §1

Fuc(a1-2)[Gal(a1-3)]Gal = target: Fuc(a1-2)[Gal(a1-3)]Gal
Outline: as §1

[19] = target: Fuc(a1-2)[Gal(a1-3)]Gal(b1-3)GlcNAc
Outline: as §1

[20] = target: Fuc(a1-2)[Gal(a1-3)]Gal(b1-3)GlcNAc(b1-2)Man(a1-3)[Fuc(a1-2)[Gal(a1-3)]Gal(b1-3)GlcNAc(b1-2)Man(a1-6)]Man(b1-4)GlcNAc(b1-4)GlcNAc
Outline: as §1

[21] = target: Fuc(a1-2)[Gal(a1-3)]Gal(b1-4)Glc
Outline: as §1

[22] = target: Fuc(a1-2)[Gal(a1-3)]Gal(b1-4)GlcNAc
Outline: as §1

[23] = target: Fuc(a1-2)[Gal(a1-3)]Gal(b1-4)GlcNAc(b1-2)Man(a1-3)[Fuc(a1-2)[Gal(a1-3)]Gal(b1-4)GlcNAc(b1-2)Man(a1-6)]Man(b1-4)GlcNAc(b1-4)GlcNAc
Outline: as §1

[24] = target: Fuc(a1-2)[Gal(a1-3)]Gal(b1-4)[Fuc(a1-3)]GlcNAc
Outline: as §1

[25] = target: Fuc(a1-2)[Gal(a1-4)]Gal(b1-4)GlcNAc
Outline: as §1

[26] = target: Fuc(a1-2)[GalNAc(a1-3)]Gal
Outline: as §1

[27] = target: Fuc(a1-2)[GalNAc(a1-3)]Gal(b1-3)GlcNAc
Outline: as §1

[28] = target: Fuc(a1-2)[GalNAc(a1-3)]Gal(b1-3)GlcNAc(b1-2)Man(a1-3)[Fuc(a1-2)[GalNAc(a1-3)]Gal(b1-3)GlcNAc(b1-2)Man(a1-6)]Man(b1-4)GlcNAc(b1-4)GlcNAc
Outline: as §1

[29] = target: Fuc(a1-2)[GalNAc(a1-3)]Gal(b1-4)Glc
Outline: as §1

[30] = target: Fuc(a1-2)[GalNAc(a1-3)]Gal(b1-4)GlcNAc
Outline: as §1

[31] = target: Fuc(a1-2)[GalNAc(a1-3)]Gal(b1-4)GlcNAc(b1-2)Man(a1-3)[GalNAc(a1-3)[Fuc(a1-2)]Gal(b1-4)GlcNAc(b1-2)Man(a1-6)]Man(b1-4)GlcNAc(b1-4)GlcNAc
Outline: as §1

[32] = target: Fuc(a1-2)[GalNAc(a1-3)]Gal(b1-4)GlcNAc(b1-3)Gal(b1-4)GlcNAc
Outline: as §1

[33] = target: Fuc(a1-2)[GalNAc(a1-3)]Gal(b1-4)GlcNAc(b1-3)Gal(b1-4)GlcNAc(b1-3)Gal(b1-4)GlcNAc
Outline: as §1

[34] = target: Fuc(a1-2)[GalNAc(a1-3)]Gal(b1-4)[Fuc(a1-3)]GlcNAc
Outline: as §1

[35] = target: Fuc(a1-2)[GalNAc(a1-4)]Gal(b1-4)GlcNAc
Outline: as §1

[36] = target: Fuc(a1-2)[GalNAc(b1-3)]Gal
Outline: as §1

Fuc(a1-3)GlcNAc = target: Fuc(a1-3)GlcNAc
Outline: as §1

[37] = target: Fuc(a1-3)[Gal(b1-4)]Glc6S
Outline: as §1

[38] = target: Fuc(a1-3)[Gal(b1-4)]GlcNAc
Outline: as §1

[39] = target: Fuc(a1-3)[Gal(b1-4)]GlcNAc(b1-2)Man(a1-3)[Fuc(a1-3)[Gal(b1-4)]GlcNAc(b1-2)Man(a1-6)]Man(b1-4)GlcNAc(b1-4)GlcNAc
Outline: as §1

[40] = target: Fuc(a1-3)[Gal(b1-4)]GlcNAc(b1-2)Man(a1-6)[Gal(b1-4)GlcNAc(b1-2)Man(a1-3)]Man(b1-4)GlcNAc(b1-4)GlcNAc
Outline: as §1

[41] = target: Fuc(a1-3)[Gal(b1-4)]GlcNAc(b1-3)Gal(b1-3)[Fuc(a1-4)]GlcNAc
Outline: as §1

[42] = target: Fuc(a1-3)[Gal(b1-4)]GlcNAc(b1-4)Gal(b1-4)[Fuc(a1-3)]GlcNAc
Outline: as §1

[43] = target: Fuc(a1-3)[Gal(b1-4)]GlcNAc(b1-4)Gal(b1-4)[Fuc(a1-3)]GlcNAc(b1-4)Gal(b1-4)[Fuc(a1-3)]GlcNAc
Outline: as §1

[44] = target: Fuc(a1-3)[Gal(b1-4)]GlcNAc6S
Outline: as §1

[45] = target: Fuc(a1-3)[Gal3S(b1-4)]Glc6S
Outline: as §1

[46] = target: Fuc(a1-3)[Gal3S(b1-4)]GlcNAc
Outline: as §1

[47] = target: Fuc(a1-3)[Gal3S(b1-4)]GlcNAc6S
Outline: as §1

[48] = target: Fuc(a1-3)[GalNAc(b1-4)]GlcNAc
Outline: as §1

Fuc(a1-4)GlcNAc = target: Fuc(a1-4)GlcNAc
Outline: as §1

Fuc(b1-3)GlcNAc = target: Fuc(b1-3)GlcNAc
Outline: as §1

Gal(a1-2)Gal = target: Gal(a1-2)Gal
Outline: as §1

B1: Neuropilin-1 (Homo sapiens), O14786 (protein)
chain: FKCMEALGMESGEIHSDQITASSQYSTNWSAERSRLNYPENGWTPGEDSYREWIQVDLGLLRFVTAVGTQGAISKETKKKYYVKTYKIDVSSNGEDWITIKEGNKPVLFQGNTNPTDVVVAVFPKPLITRFVRIKPATWETGISMRFEVYGCKITDYPCSGMLGMVSGLISDSQITSSNQGDRNWMPENIRLVTSRSGWALPPAPHSYINEWLQIDLGEEKIVRGIIIQGGKHRENKVFMRKFKIGYSNNGSDWKMIMDDSKRKAKSFEGNNNYDTPELRTFPALSTRFIRIYPERATHGGLGLRMELLGCEVE
Fuc(a1-2)Gal
  glycan array binding signal (z-score): -0.154
Fuc(a1-2)Gal(b1-3)GalNAc
  glycan array binding signal (z-score): -0.211
[1]
  glycan array binding signal (z-score): -0.04
[2]
  glycan array binding signal (z-score): -0.235
[3]
  glycan array binding signal (z-score): -0.268
Fuc(a1-2)Gal(b1-3)GlcNAc
  glycan array binding signal (z-score): -0.247
[4]
  glycan array binding signal (z-score): 1.14
[5]
  glycan array binding signal (z-score): -0.252
[6]
  glycan array binding signal (z-score): -0.204
[7]
  glycan array binding signal (z-score): -0.192
[8]
  glycan array binding signal (z-score): 1.6
Fuc(a1-2)Gal(b1-4)Glc
  glycan array binding signal (z-score): -0.304
Fuc(a1-2)Gal(b1-4)Glc6S
  glycan array binding signal (z-score): -0.18
Fuc(a1-2)Gal(b1-4)GlcNAc
  glycan array binding signal (z-score): -0.196
[9]
  glycan array binding signal (z-score): 5.83
[10]
  glycan array binding signal (z-score): -0.117
[11]
  glycan array binding signal (z-score): -0.244
[12]
  glycan array binding signal (z-score): -0.206
[13]
  glycan array binding signal (z-score): 0.606
[14]
  glycan array binding signal (z-score): 4.73
[15]
  glycan array binding signal (z-score): -0.208
[16]
  glycan array binding signal (z-score): -0.211
Fuc(a1-2)Gal6S(b1-4)Glc
  glycan array binding signal (z-score): -0.089
[17]
  glycan array binding signal (z-score): 0.017
[18]
  glycan array binding signal (z-score): -0.261
Fuc(a1-2)[Gal(a1-3)]Gal
  glycan array binding signal (z-score): -0.293
[19]
  glycan array binding signal (z-score): -0.085
[20]
  glycan array binding signal (z-score): 1.18
[21]
  glycan array binding signal (z-score): -0.162
[22]
  glycan array binding signal (z-score): -0.249
[23]
  glycan array binding signal (z-score): 6.43
[24]
  glycan array binding signal (z-score): 0.116
[25]
  glycan array binding signal (z-score): -0.207
[26]
  glycan array binding signal (z-score): -0.23
[27]
  glycan array binding signal (z-score): -0.089
[28]
  glycan array binding signal (z-score): 1.01
[29]
  glycan array binding signal (z-score): -0.198
[30]
  glycan array binding signal (z-score): -0.225
[31]
  glycan array binding signal (z-score): 5.34
[32]
  glycan array binding signal (z-score): -0.094
[33]
  glycan array binding signal (z-score): -0.007
[34]
  glycan array binding signal (z-score): 0.088
[35]
  glycan array binding signal (z-score): -0.301
[36]
  glycan array binding signal (z-score): -0.276
Fuc(a1-3)GlcNAc
  glycan array binding signal (z-score): -0.3
[37]
  glycan array binding signal (z-score): 0.455
[38]
  glycan array binding signal (z-score): -0.168
[39]
  glycan array binding signal (z-score): 10.4
[40]
  glycan array binding signal (z-score): -0.302
[41]
  glycan array binding signal (z-score): 0.083
[42]
  glycan array binding signal (z-score): -0.136
[43]
  glycan array binding signal (z-score): -0.255
[44]
  glycan array binding signal (z-score): 0.145
[45]
  glycan array binding signal (z-score): 3.54
[46]
  glycan array binding signal (z-score): -0.158
[47]
  glycan array binding signal (z-score): 1.03
[48]
  glycan array binding signal (z-score): -0.249
Fuc(a1-4)GlcNAc
  glycan array binding signal (z-score): -0.209
Fuc(b1-3)GlcNAc
  glycan array binding signal (z-score): -0.32
Gal(a1-2)Gal
  glycan array binding signal (z-score): -0.146
